PubChem BioAssay AID1645887 (National Center for Advancing Translational Sciences (NCATS), 2021)
“And” between values parts separate entries of the source, which are not always exact repeats. Equal entries are not always repeated. Among all 16,000 compounds or so, about 40 (0.2%) were called active. Not shown: some 1% with an inconclusive outcome. Calls come from the whole dose curve; as a rule, active = well fitted activation curve with a large enough effect; inconclusive = small, poorly fitted or top-dose-only effect, or another doubt; inactive = no such curve, though single readings can be large or run the other way. Some of the results follow.

Target: Rap guanine nucleotide exchange factor 4 (Homo sapiens) (UniProt Q8WZA2)
UniProt Q8WZA2, sequence (Q8WZA2 whole entry, looked up): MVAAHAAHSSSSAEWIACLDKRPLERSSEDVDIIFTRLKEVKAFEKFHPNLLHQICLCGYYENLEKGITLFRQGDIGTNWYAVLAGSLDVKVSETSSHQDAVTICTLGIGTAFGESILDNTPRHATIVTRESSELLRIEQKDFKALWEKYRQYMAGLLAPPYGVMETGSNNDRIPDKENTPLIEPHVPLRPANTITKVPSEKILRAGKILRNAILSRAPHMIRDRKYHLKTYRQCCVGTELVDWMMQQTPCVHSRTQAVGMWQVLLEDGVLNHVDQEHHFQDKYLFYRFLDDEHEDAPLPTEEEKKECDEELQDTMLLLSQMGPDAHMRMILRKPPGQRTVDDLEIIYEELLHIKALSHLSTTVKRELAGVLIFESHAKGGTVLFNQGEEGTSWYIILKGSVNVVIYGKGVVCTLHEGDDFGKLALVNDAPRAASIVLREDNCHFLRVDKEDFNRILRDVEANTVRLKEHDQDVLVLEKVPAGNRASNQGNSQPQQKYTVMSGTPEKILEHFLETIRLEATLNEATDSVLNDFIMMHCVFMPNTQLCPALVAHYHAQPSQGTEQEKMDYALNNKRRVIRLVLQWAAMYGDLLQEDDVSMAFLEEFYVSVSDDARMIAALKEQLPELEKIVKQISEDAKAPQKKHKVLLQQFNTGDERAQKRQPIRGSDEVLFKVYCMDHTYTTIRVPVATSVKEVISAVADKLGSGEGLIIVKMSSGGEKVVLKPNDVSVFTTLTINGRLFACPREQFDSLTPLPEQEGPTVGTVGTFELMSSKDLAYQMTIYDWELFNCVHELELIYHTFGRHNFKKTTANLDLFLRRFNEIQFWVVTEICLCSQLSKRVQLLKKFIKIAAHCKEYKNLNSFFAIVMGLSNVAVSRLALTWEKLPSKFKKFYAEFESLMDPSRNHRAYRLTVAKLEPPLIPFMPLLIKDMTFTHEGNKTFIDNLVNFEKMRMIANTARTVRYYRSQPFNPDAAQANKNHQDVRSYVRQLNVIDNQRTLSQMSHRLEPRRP
Assay: Validation qHTS for agonist of cAMP-regulated guanine nucleotide exchange factor 4 (EPAC2);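 note: exchange makes BODIPY-GDP fluorescence drop when released from Rap1B; series mostly up to about 150 µM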
Settings: EPAC2 Rap1B BODIPY-GDP exchange, fluorescence; activation: hits give high values
Summary of the method: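 Signal normalized against 6.5 mM cAMP as agonist control. Mix of EPAC2 (100 nM), RAP1B-BODIPY-GDP (250 nM) and GDP (50 uM) was read kinetically at 480/540 nm, every 5 min over 30 min, after 5 min room-temperature incubation with compound.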
% is set by controls: 0 for no effect and ±100 for the full control effect.

activation, inactive:
COc1ccc(Oc2ncc3nc(-c4cc(F)cc(F)c4)c(=O)n(C[C@H]4CCCO4)c3n2)cc1 -4.06%
COc1ccccc1N1CCN(CCn2c(=O)c3c(c4ccccc4n3C)n(C)c2=O)CC1 -10.5% and -2.11%
COc1ccc2c(c1)OC1(O)COc3cc(OC)c(OC)cc3C1=C2 (stereo unspecified) -13.9%
Cn1cnnc1Sc1ccc(CN2CCOc3ccc(C4=Cc5ccccc5CC4)cc3C2)o1 5.51%
C[C@H]1CCC(=O)N(CCSc2ccc(Br)cc2)CC1 -27.3%
COc1ccc(-c2cc(=O)c3c(O)cc(O)c(-c4cc(-c5cc(=O)c6c(O)cc(O)cc6o5)ccc4OC)c3o2)cc1 -9.24%
CCCCC(CC)COC(=O)c1ccccc1C(=O)O (stereo unspecified) -20.7%
Cc1oc(-c2cccc(NC(=O)c3ccccn3)c2)nc1CNC(=O)c1cc(F)c(F)cc1F 8.09%
Cc1ccc(O)c(N=Nc2ccccc2)n1 -27.6% and -17.8% and -43.7%
Cc1c(C)c2c(c(C)c1O)CCC(C)(COc1ccc(CC3SC(=O)NC3=O)cc1)O2 (stereo unspecified) -7.9% and -3.31%
CC(C)(C)NC[C@@H](O)COc1nsnc1N1CCOCC1 9.22%
COc1ccc2c(c1)OC/C(=C\c1ccc(OC)c(O)c1)C2=O -7.86%
O=C(O[C@H]1[C@H](Cc2ccccc2)NS(=O)(=O)[C@H]2C[C@@H]3C=C[C@]12O3)c1ccccc1Br -13.9%
COC(=O)C1=C(C)NC(C)=C(C(=O)OCCN2CCN(C(c3ccccc3)c3ccccc3)CC2)C1c1cccc([N+](=O)[O-])c1 (stereo unspecified) 4.05%
Cc1c(C(=O)NC2CCCC2)sc2ncnc(NCCN(C)C)c12 -10.3%
C=Cc1c(C)c2cc3[nH]c(cc4nc(cc5nc(cc1[nH]2)C(C)=C5CCC(=O)O)C(CCC(=O)O)=C4C)c(C)c3C=C -0.696% and 6.86% and 25.2%
O=C1CCC[C@@H]2CC(N(Cc3cc4ccccc4s3)c3ccccc3)C[C@@H]3CCN1[C@H]23 (stereo partly specified) -4.27%
COC(c1ccccc1)(c1ccccc1)[C@H](Oc1nc(C)cc(C)n1)C(=O)O -6.55%
CC1(C)[C@@H]2CC[C@@]1(C)C(=O)C2 -8.37% and -19.8%
CC(=O)OC1C[C@@]2(C)C(c3ccoc3)OC(=O)C3O[C@@]32[C@]2(C)C(OC(C)=O)CC3C(C)(C)C(OC(C)=O)CC(OC(C)=O)[C@@]3(C)C12 (stereo partly specified) 0.171%
COc1cc(-c2cc(C)c3c(OC)ccc(OC)c3n2)cc2c1OCCN(C(=O)C(C)c1n[nH]c(=O)c3ccccc13)C2 (stereo unspecified) -4.57%
COc1ccc2[nH]cc(CC(N)C(=O)O)c2c1 (stereo unspecified) 0.811% and -1.94%
OC1(c2cccnc2)CCN(Cc2ccc3c(c2)CN(Cc2ccc(Cl)cc2)CCO3)CC1 2.43%
COc1ccccc1C(=O)N[C@@H]1c2ccccc2C2(CCN(Cc3c(O)cccc3OC)CC2)[C@H]1O -0.604%
COc1ccc2[nH]cc(CCNc3cc(-c4ccccc4C)ncn3)c2c1 -5.84%
O=C(O)[C@@H](O)[C@H](O)[C@H](O)[C@@H](O)C(=O)O 6.86%
Cc1ncc(Cc2ccccc2)c(C2CCN(S(=O)(=O)C[C@]34CC[C@H](CC3=O)C4(C)C)CC2)n1 -1.79%
COc1ccc(C(=O)N2CCC3(CCN(CC(C)C)CC3)CC2)cc1 -2.26%
O=C(c1ccco1)N1CCC2(CCCN(Cc3ccncc3)C2)CC1 -18.9%
O=C(O)c1cc(=O)cc(C(=O)O)[nH]1 -27.8%
COc1cccc(-c2ccnc(-n3ncc(C(=O)N(C)CCc4ccccn4)c3C)n2)c1 -2.71%
CC(=O)O[C@@]1(C(C)=O)CCC2C3C=C(C)C4=CC(=O)CCC4(C)C3CCC21C (stereo partly specified) -1.95%
CN1CCC(=C2c3ccccc3CCc3cccnc32)CC1 4.83%
Cc1nn(C)cc1CNc1nc(C)c(-c2ccn(CC3COc4ccccc4O3)n2)s1 (stereo unspecified) 6.74%
Oc1cc(O)c2c(c1)O[C@H](c1ccc(O)c(O)c1)[C@H](O)C2 -22%
Nc1nc2ccc(OC(F)(F)F)cc2s1 -34.5% and -36.1% and -36%
COc1ccc2c(c1)c(CC(=O)O)c(C)n2C(=O)c1ccc(Cl)cc1 -5.24% [middle of 4 runs]
CCSc1nnc(C(C)NC(=O)c2ccc(OC)cc2)n1C (stereo unspecified) -0.603%
c1csc(CNc2ccnc(-c3ccc4c(c3)OCO4)n2)c1 -8.61%
O=C1CCN(Cc2ccc(O)cc2)CCN1[C@H](CO)c1ccccc1 -1.51%
C(=C\c1ccccc1)/CN1CCN(C(c2ccccc2)c2ccccc2)CC1 -12.1% and -74.3%
Cn1c(=O)[nH]c(=O)c2[nH]cnc21 5.45%
Nc1nc2c(ncn2[C@@H]2O[C@H](COP(=O)(O)OP(=O)(O)OP(=O)(O)O)[C@@H](O)C2O)c(=O)[nH]1 (stereo partly specified) -4.41%
CCOC(=O)C1CCCN(C(=O)c2cnn(-c3nccc(-c4cc(C)sc4C)n3)c2C)C1 (stereo unspecified) -2.19%
O=C(O)[C@H](O)c1ccccc1 -7.94%
C=CS(=O)(=O)N(Cc1ccccc1)[C@H](CO)CC(C)C -29.5%
COc1ccc(C(=O)N2CCC3(CC2)c2ccccc2[C@@H](NC(=O)c2ccccn2)[C@@H]3OC)c(O)c1 3.44%
CN1CCN(c2ncc3ncc(=O)n(Cc4ccc(F)cc4)c3n2)CC1 -10%
O=C(c1cccc(F)c1)N1CCC[C@@]2(CCN(c3ccccn3)C2)C1 -7.52%
Cc1cnc(-n2ncc(C(=O)NCCCc3ccncc3)c2C)nc1-c1ccc(F)cc1 -8.15%
CCC1CN(CCNC(=O)c2ccc(N3CCOCC3)cc2)Cc2cc(OC)ccc2O1 (stereo unspecified) 4.69%
O=c1[nH]cnc2c1nc(Cl)n2C1OC(CO)C(O)C1O (stereo unspecified) -1.6%
CCCCCCCCCCCCCCCC(=O)O[C@@H]1CC(C)=C(/C=C/C(C)=C/C=C/C(C)=C/C=C/C=C(C)/C=C/C=C(C)/C=C/C2=C(C)C[C@@H](OC(=O)CCCCCCCCCCCCCCC)CC2(C)C)C(C)(C)C1 -66.8%
O=C(C1CCCCC1)N1CC(=O)N2CCc3ccccc3C2C1 (stereo unspecified) -5.05% and 12.1% and -16.6%
COc1ccc(NC(=O)N2CC3(CCN(C(=O)c4cc(C(F)(F)F)cc(C(F)(F)F)c4)CC3)C2)cc1 -31.4%
C[C@@H]1CCC(=O)N(C[C@@H](C)CC#N)CC1 6.58%
COC(=O)N1CCC2(CCCN(Cc3ccccc3OC)C2)CC1 1.72%
Cn1c2ccccc2c2cc(C(=O)N3CCOc4ccc(C(C)(O)CCn5cccn5)cc4C3)ccc21 (stereo unspecified) -8.04%
NCC(O)COc1cccc2ccccc12 (stereo unspecified) 2.59%
Fc1ccc(Nc2ncncc2-c2ccoc2)cc1 4.95%
O=S(=O)(O)c1ccc(O)cc1 -1.89%
Cc1ccccc1CNc1ncnc2c1ncn2C1OC(CO)C(O)C1O (stereo unspecified) -0.0522%
CC(O)CO (stereo unspecified) -2.59%
CC1(C)CCCC2(C)C3C(O)CC2(C)C(O)C31 (stereo unspecified) -10.7%
COCCNc1ncnc2ccc(-c3c(C)noc3C)cc12 -15.7%
COc1ccc(CNCC(O)COc2ccc3[nH]c(=O)ccc3c2)cc1OC (stereo unspecified) -9.54%
Cc1cccnc1-c1cccc2c1OC(CNC(=O)Cn1cncn1)C2 (stereo unspecified) 2.99%
Cc1oc(-c2ccccc2NC(=O)c2ccsc2)nc1CN(C)Cc1ccc2c(c1)CCCN2C 13.6%
Cc1cnc(SCC2CCCO2)nc1C1CCCN(C(=O)c2ccc(S(N)(=O)=O)cc2)C1 (stereo unspecified) -1.51%
C/C=C(\C)C(=O)OC1c2c(ccc3ccc(=O)oc23)OC(C)(C)C1OC(C)=O (stereo unspecified) -1.12%
CC(=O)NCCCS(=O)(=O)O -5.02%
COc1ccccc1-c1ccnc(-n2ncc(C(=O)NC3CCCN(Cc4ccccc4)C3)c2C)n1 (stereo unspecified) -10.1%
O=P(O)(O)O 14.3%
COc1ccc(NC(=O)N2CC[C@@]3(CCCN(C(=O)c4cc(C(F)(F)F)cc(C(F)(F)F)c4)C3)C2)cc1 -45.4%
O=C(c1cccc(N2CCCC2=O)c1)N1CCC(Oc2cccc(CN3CCN(c4ccccn4)CC3)c2)CC1 -26.9%
NC(N)=NC(N)=NCCc1ccccc1 -9.72% and 1.08%
COc1ccccc1-c1cc(N(C)Cc2ccco2)ncn1 4%
Cn1c(=O)c(-c2cccc(Cl)c2)nc2cncnc21 4.54%
c1ccc2c(NC3CC3)nc(-c3ccoc3)nc2c1 -14.5%
CCOC(=O)O[C@]1(C(=O)COC(=O)CC)CC[C@H]2[C@@H]3CCC4=CC(=O)C=C[C@]4(C)[C@H]3[C@@H](O)C[C@@]21C -25.8%
Cc1nc2cnc(N(C)C)nc2n(C[C@H]2CCCO2)c1=O 3.26%
